Assay results as given in PubChem BioAssay AID2107 (National Center for Advancing Translational Sciences (NCATS), 2009).
The campaign covered roughly 240,000 compounds. About 20 (0.008%) were called active. The shares of active, inactive and inconclusive entries below differ from those in the screen. The call rests on the fitted dose curve; in most records, active means well fitted inhibition curve with a large enough effect; inconclusive means small, poorly fitted or top-dose-only effect, or effect the other way; inactive means flat fitted curve, though single readings scatter. No potency is given beside an inconclusive call; the fits are too rough.

Target: Alpha-galactosidase A (Homo sapiens) (UniProt P06280)
Test: qHTS Assay for Inhibitors and Activators of Human alpha-Galactosidase From Spleen Homogenate;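 on activity change, negative = inhibition: 0% = enzyme with vehicle and -100% = no enzyme basal signal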
Details: 4MU-alpha-Gal fluorescence, 40 min; activity change, negative = inhibition: at 80 µM (top of the series)
Summary of the method: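 Human spleen homogenate (1 ug) as enzyme source, 4-methylumbelliferyl-alpha-D-galactopyranoside 1 mM final, citrate/phosphate pH 5.0 with 0.01% Tween-20. Compounds 40 min at 37C, NaOH/glycine stop; fluorescence Ex 365/Em 440, Hill-fit AC50.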
Potency means the concentration at half of the fitted maximal effect; tags describe the fitted curve by direction and shape.

Chain of UniProt P06280 (P06280 whole entry, looked up): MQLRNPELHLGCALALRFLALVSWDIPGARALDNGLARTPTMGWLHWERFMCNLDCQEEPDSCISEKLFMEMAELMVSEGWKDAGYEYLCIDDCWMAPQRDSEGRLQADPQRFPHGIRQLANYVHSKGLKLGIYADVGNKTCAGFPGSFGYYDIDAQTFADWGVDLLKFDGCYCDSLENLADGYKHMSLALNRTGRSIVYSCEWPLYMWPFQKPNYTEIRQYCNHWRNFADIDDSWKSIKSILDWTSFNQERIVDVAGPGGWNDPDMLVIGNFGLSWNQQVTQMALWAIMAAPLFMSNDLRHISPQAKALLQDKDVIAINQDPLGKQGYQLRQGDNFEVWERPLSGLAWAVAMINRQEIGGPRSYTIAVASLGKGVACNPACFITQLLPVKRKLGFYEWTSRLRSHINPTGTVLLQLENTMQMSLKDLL

Row | SMILES | Potency | activity change, negative = inhibition
1 | COc1ccccc1Nc1nc(N)nc(CN2CCN(c3ccccc3F)CC2)n1 | inconclusive [inhibitor, partial curve] | 
2 | Cc1cccc(C2=NN(c3ccccc3)[C@H](CO)[C@H]2C)c1 | inconclusive [activator, partial curve] | 
3 | Nc1c(S(=O)(=O)c2cccs2)c2nc3ccccc3nc2n1Cc1ccccc1 | inconclusive [activator, single point] | 
4 | c1ccc(Oc2c3ccccc3nc3ccccc23)cc1 | inconclusive [activator, partial curve] | 
5 | Cc1ncc([N+](=O)[O-])n1CCOC(=O)c1cc(Cl)cc(Cl)c1N | inconclusive [inhibitor, single point] | 
6 | Cc1ccc(C(c2ccc(C)o2)c2cccc([N+](=O)[O-])c2O)o1 | inconclusive [inhibitor, partial curve] | 
7 | CCCCN1C=C(C(=O)OC)C(c2ccccc2Cl)C(C(=O)OC)=C1 | inconclusive [activator, partial curve] | 
8 | Cc1ccc(C(=O)NC2CC(C)(C)NC(C)(C)C2)cc1C | inconclusive [inhibitor, partial curve] | 
9 | COc1ccc(N2C(=O)C3C4C=CC(C4)C3C2=O)c(OC)c1 (configuration not stated) | inactive | 
10 | CCCc1nc2ccccc2c(=O)n1/N=C/c1ccccc1O | inactive | 
11 | Fc1ccc2[nH]c3c(N4CCN(C5CCCCC5)CC4)ncnc3c2c1 | inconclusive [activator, single point] | 
12 | COC(=O)CCCC(=O)N1CCOCCN(C(=O)CCCC(=O)OC)CCOCC1 | inconclusive [activator, single point] | 
13 | CCSc1nnc(-c2cc3c(s2)-c2ccccc2CC3)o1 | inconclusive [activator, partial curve] | 
14 | CC(C)(C)OC(=O)c1c(N)n(CCCN2CCCC2=O)c2nc3ccccc3nc12 | inconclusive [activator, partial curve, poor fit] | 
15 | CCCCn1c2nc3ccccc3nc2c2c(=N)oc(C)nc21 | inconclusive [activator, partial curve] | 
16 | Cc1cc(C)[n+](-c2ccc(C(C)C)cc2)c2[nH]c(=O)[nH]c(=O)c12 | inconclusive [activator, partial curve] | 
17 | Cc1c(NC(=O)C2CCCNC2=O)c(=O)n(-c2ccccc2)n1C (configuration not stated) | inconclusive [activator, full curve] | 
18 | COc1cc(/C=N/NC(=S)NCCN2CCOCC2)ccc1O | inactive | 
19 | COc1cc(-c2nc3ccccc3s2)ccc1O | inconclusive [activator, partial curve] | 
20 | CSCC[C@H](N)C(=O)N[C@@H](CCCN=C(N)N)C(=O)N[C@@H](CC(C)C)C(=O)N[C@@H](Cc1ccccc1)C(=O)N[C@H](C(=O)O)C(C)C | inactive | 
21 | O=C(Nc1cc(S(=O)(=O)N2CCOCC2)ccc1N1CCCC1)c1cc(=O)[nH]c2ccccc12 | inactive | 
22 | CCOC(=O)Cc1csc(NC(=O)Nc2ccc(OC(F)(F)F)cc2)n1 | inactive | 
23 | COc1cc2c(cc1OC)-c1cc3nc4ccccc4nc3n1C(C)(C)C2 | inactive | 

Row | SMILES | Potency | activity change, negative = inhibition
24 | Cc1ccc(-c2csc(NC(=O)CSc3nc4ccccc4o3)n2)cc1 | inconclusive [inhibitor, single point] | 
25 | CC(=O)OC[C@@H]1O[C@H](CCO/N=C(\C)CCN2CCc3nc(-c4ccccc4)c(-c4ccccc4)cc3C2)C=C[C@@H]1OC(C)=O |  | inactive: 8.72% [at 17.5 µM]
26 | CC[n+]1c(C=C2C=C(C)OC(C)=C2)sc2ccccc21 | inactive | 
27 | CCN1C=C(C(=O)OC)C(c2cccc(OC)c2OC)C(C(=O)OC)=C1 | inconclusive [activator, partial curve] | 
28 | CCC(C)N(C(=O)COC(=O)Cc1n[nH]c(=O)c2ccccc12)C1CCS(=O)(=O)C1 (configuration not stated) | inconclusive [inhibitor, single point] | 
29 | Cc1ccsc1C1NC(=O)c2c(sc3c2CCN(C)C3)N1 (configuration not stated) | inconclusive [activator, single point] | 
30 | COc1ccc2nc(CC(C)(C)CC(=O)O)c[n+]([O-])c2c1 | inconclusive [activator, partial curve] | 
31 | CN1CCN(c2ncc3nc(-c4ccc(F)cc4)c(=O)n(Cc4cccs4)c3n2)CC1 | inconclusive [activator, single point] | 
32 | O=C(CSc1nnc(COc2cccc3cccnc23)o1)N1CCN(C(=O)c2ccco2)CC1 | inactive | 
33 | CCOC(=O)c1cc2c(=O)n3ccccc3nc2n(CC(C)C)c1=NC(=O)c1ccco1 | inconclusive [activator, single point] | 
34 | CCCCN(CC)Cc1c(O)ccc2c3c(c(=O)oc12)CCC3 | inconclusive [activator, partial curve] | 
35 | CC(C)c1cccc2nc3c(c([Si](C)(C)C(C)(C)C)c12)Cn1c-3cccc1=O | inconclusive [activator, single point] | 
36 | CCc1nnc(NC(=O)CSc2nnc(COc3ccc(C)cc3)n2-c2ccccc2)s1 | inconclusive [inhibitor, single point] | 
37 | CC1=C(C(=O)OCc2ccccc2)C(c2ccco2)C2=C(CC(C)(C)CC2=O)N1 (configuration not stated) | inconclusive [activator, single point] | 
38 | O=C(NC(=S)NCC1CCCO1)c1ccccc1 (configuration not stated) | inconclusive [inhibitor, single point] | 
39 | C#CCOc1ccc2c(C)cc(=O)oc2c1 | inconclusive [activator, single point] | 
40 | CCOC(=O)N1CCN(C(=O)c2cccn3c(=O)c4cc(Cl)ccc4nc23)CC1 | inconclusive [activator, full curve, poor fit] | 
41 | Cc1nn(Cc2ccccc2)c2c1C(c1cccnc1)C(C#N)=C(N)O2 (configuration not stated) | inactive | 
42 | CN(C)c1ncc2nc(-c3cccs3)c(=O)n(C3CC3)c2n1 | inconclusive [activator, single point] | 
43 | Cc1cc(O)cc(=O)o1 | inconclusive [activator, full curve, poor fit] | 
44 | COC(=O)c1ccc(N2C(=O)CC(SCCN)C2=O)cc1 (configuration not stated) | inactive | 
45 | N#Cc1c(C(F)(F)F)cc(-c2ccccc2)[nH]c1=O | inconclusive [activator, partial curve] | 
46 | O=c1ccc(/C=C/c2ccccc2)nn1Cc1ccc(Cl)cc1Cl | inconclusive [activator, single point] | 

Row | SMILES | Potency | activity change, negative = inhibition
47 | CC(Oc1ccc(Cl)cc1Cl)C(=O)/C=C/N(C)C (configuration not stated) | inconclusive [activator, single point] | 
48 | O=C(CCl)Nc1nc(-c2ccco2)c(-c2ccco2)s1 | inactive | 
49 | CN1CCN(c2oc(/C=C/c3ccccc3)nc2C#N)CC1 | inconclusive [activator, single point] | 
50 | CC1(C)Cc2ccccc2-c2nc(NCCO)n(-c3ccccc3)c(=O)c21 | inconclusive [activator, partial curve] | 
51 | C[C@@H]1C(c2ccccc2)=NN(c2ccc(Br)cc2)[C@H]1C(=O)N1CCOC1=O | inconclusive [activator, partial curve] | 
52 | O=C(O)CCSc1nc2ccc(Br)cc2[nH]1 | inconclusive [inhibitor, partial curve] | 
53 | O=C1CCCC2=C1C(c1ccc(O)cc1)c1c(ccc3ccccc13)N2 (configuration not stated) | inconclusive [activator, partial curve] | 
54 | COCCn1c(=O)c(-c2ccc(F)cc2)nc2cnc(N(C)C)nc21 | inconclusive [activator, partial curve] | 
55 | CC(=O)Nc1ccc2c(COC(=O)[C@H](C)N3C(=O)C4CCCCC4C3=O)cc(=O)oc2c1 (some centres not stated) | inconclusive [activator, single point] | 
56 | Cc1ccccc1N=C/C=C1\N(C)c2ccccc2C1(C)C | inconclusive [inhibitor, single point] | 
57 | Cc1ccc2cc(C#N)c(NCCCNC(=O)C3CCCO3)nc2c1 (configuration not stated) | inconclusive [activator, partial curve] | 
58 | CCc1nc2sc(C(C)=O)c(N)c2c2c1CCCC2 | inconclusive [activator, partial curve] | 
59 | O=C(CSc1ccc2nnc(-c3ccc(Cl)cc3)n2n1)N1CCc2ccccc21 | inactive | 
60 | O=c1c2c3c(sc2nc2n1CCCS2)CCCC3 | inconclusive [inhibitor, single point] | 
61 | O=C1S/C(=C/c2ccc(N3CCOCC3)o2)C(=O)N1Cc1ccc(F)cc1 | inactive | 
62 | NS(=O)(=O)c1ccc(NC(=S)N2CCN(c3cccc(Cl)c3)CC2)cc1 | inactive | 
63 | Cc1noc2nc(-c3cccs3)cc(-c3nnc4n3CCCCC4)c12 | inconclusive [activator, partial curve] | 
64 | O=C(NCc1ccccn1)[C@]1(C(F)(F)F)C[C@H](CCc2ccccc2)CCCO1 | inactive | 
65 | Cc1cc(N)c(NC2=CC(=O)CC(C)(C)C2)cc1C | inconclusive [activator, single point] | 
66 | O=c1c(-c2ccccc2)nc2cnc(N3CCOCC3)nc2n1Cc1ccc(F)cc1 | inactive | 
67 | CCN(CC)CCCN(Cc1cc2cc3c(cc2[nH]c1=O)OCO3)C(=S)NCc1ccco1 | inconclusive [activator, single point] | 
